# Data taken from PubChem BioAssay AID995 (National Center for Advancing Translational Sciences (NCATS), 2007).
# In all, about 72,000 compounds went through this assay and about 710 (0.99%) were called active. Inconclusive means that the source gave no clear call. Such entries were picked first, then a sample of the others. The call rests on the fitted dose curve; in most records, active means well fitted inhibition curve with a large enough effect; inconclusive means small, poorly fitted or top-dose-only effect; inactive means no such curve, though single readings can be large or run the other way. Potencies of inconclusive entries are left out as doubtful fits.
# Experiment: qHTS Assay for Inhibitors of the ERK Signaling Pathway using a Homogeneous Screening Assay; further: nearly all actives have a fitted effect of over 55% in size
# Details: HEK293-V1b, vasopressin-stimulated pERK AlphaScreen; activity, negative = inhibition: at 57.5 µM (top of the series) unless noted
# How it was run: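 HEK293 cells stably expressing V1b receptor, seeded overnight in 1% FBS, were treated with compounds for 30 min at 37C, then stimulated 5 min with 25 nM vasopressin; phospho-ERK read by AlphaScreen SureFire after lysis.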
# On the % scale 0 is the no-effect control and ±100 the full control effect; potency means the concentration at half of the fitted maximal effect; tags describe the fitted curve by direction and shape.
SMILES,Potency,"activity, negative = inhibition"
OCc1ccccc1OCCOc1ccc(Cl)c2cccnc12,"inconclusive [inhibitor, single point]",
N=c1sccn1CC(=O)Nc1ccc(S(=O)(=O)N2CCOCC2)cc1,,inactive: 12.9%
CS(=O)(=O)N(CC(=O)NCc1ccc2c(c1)OCO2)Cc1ccc(Cl)cc1,"inconclusive [inhibitor, partial curve]",
CC(O)CNc1nc2ccccc2n1-c1ncnc2sc3c(c12)CCC3 (stereo unspecified),"inconclusive [inhibitor, single point]",
CC(C)C(=O)NC(c1ccco1)c1ccc2cccnc2c1O (stereo unspecified),"inconclusive [inhibitor, partial curve]",
COc1ccccc1OCC(=O)N(Cc1nc(-c2ccc(Cl)cc2)no1)C(C)C,"inconclusive [inhibitor, single point]",
COc1cc2c(cc1OC)-c1cc(NCc3ccccn3)nc(=O)n1CC2,"inconclusive [inhibitor, partial curve]",
COc1ccc2[nH]cc(CCNc3nc(-c4ccoc4)nc4ccccc34)c2c1,"inconclusive [inhibitor, partial curve, poor fit]",
CC1=Nc2ccccc2N=C(NC(=O)CSc2nnnn2-c2ccccc2)C1c1ccccc1 (stereo unspecified),"inconclusive [inhibitor, partial curve, poor fit]",
COc1cccc(-c2oc3ccccc3c(=O)c2O)c1,"inconclusive [inhibitor, single point]",
CCCc1nnc(NC(=O)c2c(O)c3cccc4c3n(c2=O)CCC4)s1,,inactive: 22.8%
Cc1cc(N2CCCCC2)n2ncc(-c3ccccc3)c2n1,,inactive: 66.3%
O=C(Nc1ccc2c(c1)CCC2)C1CCN(c2c3c(nc4ncnn24)CCC3)CC1,"inconclusive [inhibitor, single point]",
CCOC(=O)C1=C(C)NC(=O)NC1C (stereo unspecified),inactive,
Oc1ccccc1O,,inactive: -21.8%
CCOCCCNc1nc2ccccc2[nH]1,,inactive: -21.5%
CCN(CC)S(=O)(=O)c1cccc(-c2nnc(SCC(=O)NCCC3=CCCCC3)n2N)c1,active: 39.8 µM,
CN(C)S(=O)(=O)c1ccc2nc(NC(=O)c3cccnc3)sc2c1,"inconclusive [inhibitor, partial curve]",
Cc1ccc(C2C=C(c3ccc4c(c3)OCO4)Nc3ncnn32)cc1 (stereo unspecified),,inactive: 30.5%
CCN1CCN(c2ncc(C(=O)Nc3c(F)cc(F)cc3Br)c3ccccc23)CC1,,inactive: 20.5%
Cc1nn(-c2nc3ccccc3n2Cc2ccccc2)c2c1C(=O)CC(C)(C)C2,"inconclusive [inhibitor, full curve, poor fit]",
CCOC(=O)c1cnc2sc3c(n2c1=O)CCCC3,"inconclusive [inhibitor, partial curve]",
CCOC(=O)c1cnn(-c2cc(C)c3ccccc3n2)c1N,,inactive: 43.1%

SMILES,Potency,"activity, negative = inhibition"
COc1ccc(C)cc1Cn1c(S(C)(=O)=O)nc2ccccc21,,inactive: -1.55%
COc1ccc(NC(=O)c2ccc(-c3ccc(-c4noc(C)n4)cc3C)cc2)cc1OCCN(C)C,"inconclusive [inhibitor, single point]",
Clc1ccc(C2CC(c3cccs3)n3ncnc3N2)cc1Cl (stereo unspecified),"inconclusive [inhibitor, partial curve]",
COc1ccc(OC)c(C2CC(=O)N3CN(c4ccccc4F)CSC3=C2C#N)c1 (stereo unspecified),"inconclusive [inhibitor, partial curve]",
COc1cccc(Nc2ncc3nc(-c4ccccc4)c(=O)n(C4CC4)c3n2)c1,,inactive: 0.485%
O=C(CCN1C(=O)c2ccccc2C1=O)NC1=NCCS1,"inconclusive [inhibitor, partial curve]",
O=C(c1ccco1)N1CCN(c2nc3ccccc3n3nnnc23)CC1,"inconclusive [inhibitor, single point]",
CCOC(=O)c1[nH]c(COC(=O)c2ccccc2NC(=O)c2ccco2)c(C(=O)OCC)c1C,"inconclusive [inhibitor, single point]",
COc1ccc2c(c1)-c1nc(NC(=O)c3ccco3)sc1CC2,"inconclusive [inhibitor, single point]",
COc1cc(NC(=O)c2ccc(Cl)cc2)c(OC)cc1NC(=O)CN1CCOCC1,"inconclusive [inhibitor, partial curve]",
O=C(CSc1nc2[nH]ncc2c(=O)n1-c1ccccc1)N1CCCc2ccccc21,"inconclusive [inhibitor, single point]",
COc1ccc(-c2noc(CSc3nnc(CCc4ccccc4)n3-c3ccccc3)n2)cc1OC,"inconclusive [inhibitor, full curve, poor fit]",
Fc1ccc(C(OCCCc2cnc[nH]2)c2ccc(F)cc2)cc1,"inconclusive [inhibitor, partial curve]",
O=c1c(-c2ccc(F)c(F)c2)nc2cncnc2n1Cc1ccccc1,,inactive: -23.1%
O=C(c1ccncc1)c1ccc(N2CCN(C3CC(=O)N(Cc4ccccc4)C3=O)CC2)cc1 (stereo unspecified),"inconclusive [inhibitor, partial curve]",
CCNC(=O)N1CCN(CCCC(c2ccc(F)cc2)c2ccc(F)cc2)CC1,"inconclusive [inhibitor, single point]",
O=C1CCC(c2ccc(-n3ccnc3)cc2)=NN1,"inconclusive [inhibitor, single point]",
COc1ccc(C2NC3=C(CCCC3)C(C#N)(C#N)C2(C#N)C#N)cc1 (stereo unspecified),,inconclusive: -33.5% [inhibitor]
C[C@@H]1/C=C\CC(=O)OC[C@H](C)C(=O)N[C@@H](Cc2ccccc2)C(=O)OC1,,inactive: 4.9% [at 11.5 µM]
CC1=CC(=O)C2C(C)(C)CCC[C@@]2(C)[C@@]1(O)CCc1ccoc1 (stereo partly specified),,inactive: -1.94%
COc1ccc2nc(NC(=O)C3CCCN(S(=O)(=O)c4cccs4)C3)sc2c1 (stereo unspecified),"inconclusive [inhibitor, partial curve]",
COC(=O)/C=C\c1cc(O)ccc1O,,inactive: -22.7%
Cc1ccc(Cl)cc1N1CCN(C(=O)c2cc3c(=O)n(C)c4ccccc4c3n2C)CC1,"inconclusive [inhibitor, full curve]",
